From PMC4336329 (PLoS ONE, 2015)
The campaign covered roughly 310,000 compounds. About 2,200 (0.71%) showed an effect of 50% or more. Effects have a minus sign here. Some of the results follow.

Each compound was assayed against human ether-à-go-go-related gene (hERG) potassium channel (human, UniProt Q12809) (assay: primary screen, population patch clamp on CHO cells stably expressing hERG).
Chain of human ether-à-go-go-related gene (hERG) potassium channel (Q12809 whole entry, looked up): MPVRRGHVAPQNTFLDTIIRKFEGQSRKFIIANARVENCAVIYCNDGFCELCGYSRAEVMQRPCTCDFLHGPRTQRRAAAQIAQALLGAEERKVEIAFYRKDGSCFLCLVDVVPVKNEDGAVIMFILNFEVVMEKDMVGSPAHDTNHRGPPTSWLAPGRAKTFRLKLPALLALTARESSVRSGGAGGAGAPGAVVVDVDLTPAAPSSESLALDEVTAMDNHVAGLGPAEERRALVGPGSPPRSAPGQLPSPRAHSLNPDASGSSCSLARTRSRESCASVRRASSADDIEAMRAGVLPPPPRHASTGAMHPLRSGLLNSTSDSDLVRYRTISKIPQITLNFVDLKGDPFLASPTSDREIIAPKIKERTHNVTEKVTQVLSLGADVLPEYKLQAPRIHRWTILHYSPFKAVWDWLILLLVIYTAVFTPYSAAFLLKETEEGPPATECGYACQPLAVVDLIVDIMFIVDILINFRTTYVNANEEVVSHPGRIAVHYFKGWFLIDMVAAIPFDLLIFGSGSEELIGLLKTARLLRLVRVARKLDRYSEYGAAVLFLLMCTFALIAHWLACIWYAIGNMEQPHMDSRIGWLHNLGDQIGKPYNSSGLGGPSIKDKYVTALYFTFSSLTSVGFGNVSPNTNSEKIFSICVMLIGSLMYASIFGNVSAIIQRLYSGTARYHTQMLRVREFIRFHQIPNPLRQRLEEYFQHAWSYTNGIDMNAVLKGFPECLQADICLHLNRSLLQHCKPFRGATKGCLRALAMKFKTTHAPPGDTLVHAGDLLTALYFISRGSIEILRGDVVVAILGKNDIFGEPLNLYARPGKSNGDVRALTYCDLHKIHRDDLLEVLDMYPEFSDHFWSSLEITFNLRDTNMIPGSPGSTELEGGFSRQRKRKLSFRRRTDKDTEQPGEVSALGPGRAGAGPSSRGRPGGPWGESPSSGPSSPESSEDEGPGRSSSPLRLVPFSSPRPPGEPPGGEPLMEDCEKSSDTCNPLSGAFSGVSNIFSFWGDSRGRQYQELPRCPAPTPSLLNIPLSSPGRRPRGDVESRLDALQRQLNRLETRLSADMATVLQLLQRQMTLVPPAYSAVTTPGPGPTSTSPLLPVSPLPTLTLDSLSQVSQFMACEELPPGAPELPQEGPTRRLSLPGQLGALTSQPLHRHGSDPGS

| Structure (SMILES) | hERG current change (%, negative = inhibition) at 1uM [%] |
| --- | --- |
| CC(=O)N1CC=C2C(C#N)=C(N)C(C#N)(C#N)C(C)C2C1 (centres unmarked) | 14.8 |
| O=C(/C=C/c1ccco1)Nc1ccc2c(c1)OCCO2 | 12.2 |
| CCC(=O)NC(=S)Nc1ccc(NC(=O)COc2ccccc2)cc1 | 19.7 |
| O=C(O)Cc1ccc(Nc2cnn(C34CC5CC(CC(CC(=O)O)(C5)C3)C4)c(=O)c2Cl)cc1 | 13.3 |
| Cc1nn(CCC#N)c(NC(=O)c2ccc(Cl)cc2Cl)c1P(=O)(Nc1ccc([N+](=O)[O-])cc1)N1CCOCC1 (centres unmarked) | -4.29 |
| C=CCn1c(=NC(=O)c2cccs2)sc2cc(NC(C)=O)ccc21 | 15 |
| CN(CCNC(=O)CCNC(=O)Cn1ccc2ccccc2c1=O)Cc1ccccc1 | 9.43 |
| CS(=O)(=O)NC1c2cccc3cccc(c23)C1Sc1nncn1/N=C/c1ccco1 (centres unmarked) | -3.39 |
| COc1ccc(CCNC(=O)Cn2cc(C(F)(F)F)cc(Cl)c2=O)cc1OC | -0.426 |
| COC(=O)c1c(NC(=O)CC2Nc3cc(C)c(C)cc3NC2=O)sc(C)c1C (centres unmarked) | -1.33 |
| CCOC(=O)/C(C#N)=C/c1c(N2CCN(c3ccc(OC)cc3)CC2)nc2c(C)cccn2c1=O | 11.3 |
| Cc1ccc(NC(=O)C(C)SCc2ccccc2)cc1 (centres unmarked) | 14.3 |
| O=[N+]([O-])c1ccccc1OCCCCN1CCCCC1 | -16.3 |
| O=c1c2c3c(sc2ncn1/N=C/c1ccccc1)CCCC3 | 6.71 |
| COCc1cc(CN2CCN(CCc3ccccc3)C(CCO)C2)ccc1OC (centres unmarked) | -32.3 |
| CCOC(=O)C1=C(C)NC2=C(C1c1ccc([N+](=O)[O-])cc1)S(=O)(=O)c1ccccc12 (centres unmarked) | 4.23 |
| Cc1nc(SCC(=O)NCc2cccs2)nc(C)c1C | 6.32 |
| CC(C)(C)c1ccc(OCC(O)CN(CCO)CC(O)Cn2ccc3ccccc32)cc1 (centres unmarked) | 7.37 |
| Cn1nnnc1SCC(=O)Nc1cccc([N+](=O)[O-])c1 | 12.8 |
| CCOC(=O)c1cc(C(=O)Nc2ccc(C)c(F)c2)nn1C | 7.7 |

| Structure (SMILES) | hERG current change (%, negative = inhibition) at 1uM [%] |
| --- | --- |
| Cc1n[nH]c(=S)n1Cc1ccccc1 | 11.8 |
| COc1ccccc1-c1ccc(/C=C2/C=C(CC(C)C)OC2=O)o1 | 13.9 |
| NCCN=C1NS(=O)(=O)c2ccccc21 | 13.6 |
| COc1ccc(Cl)cc1NC(=S)NC(=O)c1ccco1 | -5.93 |
| COc1ccc(-c2cc(C(=O)N3CCN(S(=O)(=O)c4ccc(C)cc4)CC3)[nH]n2)cc1 | 2.03 |
| Nc1nonc1-c1nc2ccccc2n1CC(=O)N1CCN(c2ccc(F)cc2)CC1 | -0.994 |
| O=C(COc1ccccc1)NNc1nc2c(F)cccc2s1 | 4.03 |
| Cc1cccc(NC(=O)CO/N=C/c2ccc3c(c2)OCO3)c1 | 10.8 |
| Cc1cc2oc(=O)cc(Cn3nnc(-c4ccc(Cl)cc4)n3)c2cc1C(C)C | 12 |
| Cc1nc(SCc2ccccc2C#N)n[nH]1 | 19.3 |
| CC(C)(C)c1ccc(C(=O)NCCC(=O)Nc2cc(Cl)ccc2N2CCOCC2)cc1 | 12.9 |
| CCCCc1nnc(NC(=O)C(C)Sc2nc(C)cc(=O)[nH]2)s1 (centres unmarked) | -3.18 |
| Cc1cc(=O)n2nc(N3CCC(C(=O)Nc4cccc(Cl)c4C)CC3)sc2n1 | 9.7 |
| CC1CCN(c2cc(N3CCOCC3)c([N+](=O)[O-])cc2F)CC1 | 11.1 |
| C[N+](C)(C)CCCN1C(=O)CCCC1=O.[I-] | 15.5 |
| CCCNC(=O)COCc1cc(-c2ccc3c(c2)OCO3)on1 | 13.9 |
| Cl.Fc1ccc(COc2cccc(CNCc3ccncc3)c2)cc1 | -1.04 |
| Cl.Cn1c(=O)c2c(nc(N3CCOCC3)n2CCCNC2=NCCCCC2)n(C)c1=O | 14.6 |
| CN(C)c1ccc(/C=N/NC(=O)c2ccccn2)cc1 | 15.3 |
| COc1ccc(CCNC(=O)CCn2c(=O)oc3ccccc32)cc1OC | 10.8 |

| Structure (SMILES) | hERG current change (%, negative = inhibition) at 1uM [%] |
| --- | --- |
| O=C(NC1CCNCC1)C1CC1 | 16 |
| Cc1ccccc1C(=O)c1cccn1CC(=O)NCC1CCCO1 (centres unmarked) | 3.49 |
| Cc1cc(C)c2sc(N(CCN(C)C)C(=O)c3cc(Cl)sc3Cl)nc2c1.Cl | 8.21 |
| CCCC(=O)c1ccc(N2CCCCC2)c(F)c1 | 14.5 |
| CCN(CC)S(=O)(=O)c1cc(F)ccc1OC | -0.995 |
| O=C1CC2(CCCCC2)Oc2ccc(Cl)cc21 | 3.55 |
| CCc1cc(OCCN(C)C)ccc1Cl.O=C(O)C(=O)O | 9.9 |
| CCCCn1c(SCC(=O)NC(=O)Cc2ccccc2)nc2ccccc2c1=O | 9.52 |
| Cc1ccn2cc(CCNS(=O)(=O)c3ccc4c(c3)OCCO4)nc2c1 | 9.15 |
| COC(=O)c1[nH]c2cc(C)ccc2c1NC(=O)CN1CCN(c2ccccc2OC)CC1 | -0.715 |
| O=C(NCCc1nc2ccccc2[nH]1)c1ccc(Cl)c([N+](=O)[O-])c1 | -5.13 |
| CCN1CCCC1CNC(=O)C(=O)Nc1ccc(OC)cc1 (centres unmarked) | 10.3 |
| COc1ccccc1CNC(=O)C1CC(c2ccc([N+](=O)[O-])cc2)=NO1 (centres unmarked) | 7.68 |
| O=C(NCc1ccccn1)C(=O)NCc1ccccn1 | 8.97 |
| COc1ccc(-c2nc3n(n2)C(c2ccccc2)C2=C(CCCC2=O)N3)cc1OC (centres unmarked) | 2.1 |
| CCOC(=O)/C(C#N)=C\c1cccnc1 | 12.9 |
| CC(C)C(=O)N1CCC(Cc2ccccc2)CC1 | 10 |
| Cc1nnc(SCC(=O)Nc2ccccc2)n(N)c1=O | 1.55 |
| COC(=O)c1ccc(C(=O)OC)c(NC(=O)/C=C/C(=O)O)c1 | 5.2 |
